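Values below derive from 48-hour exposures of cells grown in 96-well plates, with endpoints linearly interpolated between the two concentrations bracketing the appropriate inhibition level. GI50 marks 50% less growth.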 Active and inactive are the calls of the source. Rule as the data show it: active = GI50 up to about 1.1 µM and inactive = higher. Where only a bound is given, the exact number is not on record here.

The text below walks through data of ChEMBL document CHEMBL1201862, “PubChem BioAssay data set” (2004).

The test system of this experiment is NCI-H322M. The experiment can be described thus: NCI anticancer screen, dose series, 48 h.
Turning to `O=C(NN1C(=O)C(Cl)C1c1ccccc1O)c1ccccc1O` (stereo not drawn), the GI50 is inactive: 3.4 µM.
In the case of `CSc1nc(O)c(C#N)c(-c2ccc(Cl)cc2)n1` it was inactive: > 100 µM.
Next, `c1ccc(CCc2cccnc2)nc1`: inactive: > 100 µM; `O=C(O)CCSCc1ccccc1`: inactive: > 100 µM.
`Nc1nnnn1CCO`: the GI50 was inactive: > 100 µM.
As for `Cc1nc(O)c(Cc2ccccc2O)c(-c2ccccc2)n1`, the GI50 is inactive: 37.4 µM.
Turning to `O=C1CCC2(c3ccccc3)Nc3cc(Cl)ccc3N12` (stereo not drawn), the GI50 is inactive: 23.3 µM.
Next, `CN(Cc1cnc2nc(N)nc(N)c2n1)c1ccc(C(=O)NC(CCC(=O)O)C(=O)O)cc1C(F)(F)F` (stereo not drawn): inactive: 66.4 µM; `CCC1(CC)C(=O)NC(=S)N=C1N`: inactive: > 100 µM; `O=c1c2cc(Br)cc(Br)c2nc(CCCl)n1-c1ccc(O)c([N+](=O)[O-])c1`: inactive: 17.9 µM.
In the case of `COc1cc2cc(C(=O)N3C[C@H](CCl)c4c3cc(N)c3ccccc43)[nH]c2c(OC)c1OC` it was active: 0.138 µM; in that of `O=c1[nH]c(=O)n(C2OC(CO)C(O)C2O)c2nc(-c3ccc(-c4ccccc4)cc3)cnc12` (stereo not drawn), inactive: > 100 µM.
As to `Cc1[nH]c(=O)nc(S)c1C(=O)Nc1cccc2cc3ccccc3cc12`, the GI50 was inactive: > 100 µM.
In the case of `C/C(O)=C1\CC2CN3CCc4c([nH]c5ccccc45)C3CC2CC1=O` (stereo not drawn) it was inactive: 91.4 µM.
Next, `CC[n+]1c(/C=C/c2cc(C(=O)OC)n3c2sc2ccccc23)sc2ccccc21`: inactive: 16.3 µM; `CC(C)=CC(=O)N1CCN(C(=O)C=C(C)C)CC1`: inactive: > 100 µM.
For `Fc1ccc(/C(=N/Cc2ccccc2)N2CCOCC2)cc1`, the GI50 was inactive: > 100 µM.
Next, `COc1cc(/C=N/N=C(\N)NO)c(Cl)cc1O`: inactive: 11.7 µM.
Next, `CN(C(=O)Cc1cc(Cl)c(Cl)cc1N=C=S)[C@H]1CCCC[C@@H]1N1CCCC1`: inactive: 15.4 µM.
Take `COc1ccc(NC(=O)CC(=O)n2nc(-c3ccccc3)c(/N=N/c3ccccc3C)c2-c2ccccc2)cc1`: the GI50 was inactive: > 100 µM.
Regarding `Cc1cccc2nc(-c3ccccc3)cc(=O)n12`, the GI50 is inactive: > 100 µM.
`N#Cc1cccc(C2C(=O)c3ccc(C(=O)c4ccc5c(c4)C(=O)N(c4ccc(Oc6ccc(N7C(=O)c8ccc(C(=O)c9ccc%10c(c9)C(=O)N(c9cccc(C#N)c9)C%10=O)cc8C7=O)cc6)cc4)C5=O)cc3C2=O)c1` (stereo not drawn): the GI50 was inactive: > 100 µM.
In the case of `CC1(C)CCCCC1/C=C/C(CC(O)(C(F)(F)F)C(F)(F)F)=N\Nc1ccc([N+](=O)[O-])cc1[N+](=O)[O-]` (stereo not drawn), the GI50 was active: 0.282 µM.
As to `O=c1c2cc3ccccc3n2c(=O)c2cc3ccccc3n12`, the GI50 is inactive: > 100 µM.
On to `O=C(Cc1nc2ccccc2s1)Nc1cccc(C(F)(F)F)c1`, for which the GI50 was inactive: 13.9 µM.
In the case of `CCCCNC(=S)Nn1c(-c2ccccc2)nc2ccccc2c1=O` it was inactive: > 100 µM; in that of `CC[C@@]1(OP(=O)(O)O)C(=O)OCc2c1cc1n(c2=O)Cc2cc3ccccc3nc2-1`, active: 0.6 µM; in that of `Cc1ccc(/C=C2\CCCCC2=O)cc1`, inactive: > 100 µM.
Next, `C/C1=C/C(C)CC(C)OC(=O)C(C)NC(=O)C(Cc2ccc(O)c(I)c2)N(C)C(=O)CNC(=O)C(C)C1` (stereo not drawn): inactive: 1.18 µM; `COC(=O)/C=C(\CC(=O)OC)n1nnnc1[C@@H]1C[C@H](COC(c2ccccc2)(c2ccccc2)c2ccccc2)[C@H]2OC(C)(C)O[C@H]21`: inactive: > 100 µM; `COC(=O)c1csnn1`: inactive: > 100 µM.
As for `N#Cc1nc(C#N)c(NC(=O)c2ccccc2C(=O)O)[nH]1`, the GI50 is inactive: > 100 µM.
Next, `COc1cc(CCC(=O)NS(=O)(=O)c2ccccc2)cc(OC)c1OC`: inactive: > 100 µM; `CC(C)(C)OC(=O)N1CCC2(C)CC(=O)CC=C12` (stereo not drawn): inactive: > 100 µM; `CCCCCCCCCCCCC(=O)NCC(=O)NC(Cc1ccccc1)C(=O)Oc1ccc([N+](=O)[O-])cc1` (stereo not drawn): inactive: 72.8 µM.
Next, `CCOC(=O)Nc1cc(NC(/C=N/NC(C)=O)C(=O)OCC)c(OC)cc1NC(C)=O` (stereo not drawn): inactive: > 100 µM; `COc1ccc(/C=C2\OC(=O)C(Cl)=C2c2ccc(OC)cc2)cc1`: inactive: > 100 µM.
In the case of `CC1=CCC(O)C=CC(C)C(O)C(C)C=C(C)C(=O)c2c(O)c(C)cc3c2C(=O)C(N)=C(NC(=O)/C=C\C=C/C=CC(C)C(O)CC1=O)C3=O` (stereo not drawn) it was inactive: > 100 µM.
Take `C=C(C)C1CC=C(C)C2(C1)OCC(C)(C)C(C)O2` (stereo not drawn): the GI50 is inactive: 23.6 µM.
Next, `Cc1ccc(S(=O)(=O)ON/N=C2/C3OC3[C@@H]3CCCC[C@H]23)cc1` (stereo partly drawn): inactive: > 100 µM.
Next, `COC(=O)[C@H]1C=C[C@H](OC2OC(COC(C)=O)C(OC(C)=O)C(OC(C)=O)C2OC(C)=O)n2c(=O)n(-c3ccccc3)c(=O)n21` (stereo partly drawn): inactive: 16 µM; `Cc1ccc(NC(=O)CC/C(CC(=O)C(C)(C)C)=N\Nc2ccc([N+](=O)[O-])cc2[N+](=O)[O-])cc1C`: inactive: > 100 µM.
For `CC(C)CCCC(C)[C@H]1CC[C@H]2N/C(=N/Cc3ccccc3)CCC[C@]12C` (stereo partly drawn), the GI50 was inactive: 2.24 µM.
In the case of `CC(=O)c1cccc(NC(=O)C(=O)C(c2cnc3ccc([N+](=O)[O-])cc3n2)[N+](=O)[O-])c1` (stereo not drawn) it was inactive: > 100 µM; in that of `C/C(=N\NC(=S)N1CC2CCC(CC2)C1)c1cccc(C)n1`, active: 0.373 µM.
In the case of `CCOC(=O)c1c(NC(=S)Nc2ccc(C)cc2)sc2c1CCN(C)C2` it was inactive: > 100 µM; in that of `Cc1nc2c(-c3ccccc3)[nH]c(C)c2c(=O)o1`, inactive: > 100 µM; in that of `COc1cc2c(cc1O)C1C(O)C(O)C=C3CCN(C2)C31` (stereo not drawn), inactive: 2.52 µM.
In the case of `COC(=O)C(C(=O)C(=O)Nc1ccc(Br)cc1)c1nc2ccc(Cl)cc2nc1O` (stereo not drawn) it was inactive: > 100 µM; in that of `COC(=O)c1ccccc1C1CN=NC12Cc1cc(C)cc(C)c1C2=O` (stereo not drawn), inactive: 50.4 µM; in that of `COC(=O)C1=C(O)C(C(=O)OC)[C@]2(O)[C@@H](C(=O)OC)[C@H]1[C@H](C)[C@@H](c1ccccc1)[C@@H]2C(=O)OC` (stereo partly drawn), inactive: > 100 µM.
As for `COC(=O)/C(=N\N)C(C(=O)C(=O)Nc1cccc([N+](=O)[O-])c1)c1nc2ccc(C(=O)c3ccccc3)cc2nc1O` (stereo not drawn), the GI50 is inactive: > 100 µM.
On to `COC(=O)C1=C(OC(=O)/C=C/c2ccccc2)C(C(=O)OC)[C@@]2(O)[C@@H](C(=O)OC)[C@H](C)C[C@@H]1[C@@H]2C(=O)OC` (stereo partly drawn), for which the GI50 was inactive: 24.1 µM.
In the case of `CCc1c2c(cc3c1CC1(C3)Cc3cc4c(c(C(=O)OC)c3C1)CCCC4)CCCC2` (stereo not drawn) it was inactive: > 100 µM; in that of `CC1(C)c2ccccc2N2C(c3ccccc3)=NOC21C` (stereo not drawn), inactive: > 100 µM; in that of `OCC1OC(n2cnc3c(Cl)nc(Nc4ccccc4)nc32)CC1O` (stereo not drawn), inactive: 94.4 µM.
In the case of `O=C1C(Cl)=C(N2CCN(c3ncccn3)CC2)C(=O)c2c(O)ccc(O)c21` it was inactive: 3.79 µM.
In the case of `COC(=O)C(C)Sc1nc2cc(Cl)ccc2s1` (stereo not drawn) it was inactive: > 100 µM.
Regarding `CCOC(=O)NC(=O)c1cn(CCN2CCN(C(=O)NCCCCCCNC(=O)N3CCN(CCn4cc(C(=O)NC(=O)OCC)c(=O)n(CCN(CC)CC)c4=O)CC3)CC2)c(=O)n(CCC(CC)CC)c1=O`, the GI50 was inactive: > 100 µM.
Next, `CC1=C/C(=N\N(C)C)C(C(O)(C(F)(F)F)C(F)(F)F)C(C)(C)C1` (stereo not drawn): inactive: > 100 µM.
As to `NCCC(N)C(=O)O` (stereo not drawn), the GI50 was inactive: > 100 µM.
In the case of `COc1ccc(CC2c3cc(Oc4cc(CC5c6cc(OC)c(OC)cc6CCN5C)ccc4O)c(OC)cc3CCN2C)cc1` (stereo not drawn) it was inactive: 7.62 µM.
Next, `O=c1[nH]c(=O)n(C2CC(O)C(CO)O2)cc1/N=N/NCc1ccccc1` (stereo not drawn): inactive: > 100 µM; `O=C1SC(SCc2ccccc2)=NC12CC2c1ccccc1` (stereo not drawn): inactive: 22.5 µM.
In the case of `CN(Cc1cnc2c(n1)C(N)=NN(N)N2)c1ccc(C(=O)NC(CCP(=O)(O)O)C(=O)O)cc1` (stereo not drawn) it was inactive: > 25.6 µM; in that of `Cn1c(=O)sc2cc(C(=S)N3CCC(Cc4ccccc4)CC3)ccc21`, inactive: > 100 µM; in that of `O=C(O)CCN1CCN(CCC(=O)O)CCN(CCC(=O)O)CC1`, inactive: > 100 µM.
`O=C(O)c1ccccc1/N=N/c1ccc2oc(=O)c(C(=O)Nc3ccccc3)cc2c1`: the GI50 was inactive: 41.1 µM.
For the molecule `CCOC1OC(CO[Si](C)(C)C(C)(C)C)C(O)CC1n1ccc(=O)[nH]c1=O` (stereo not drawn), the GI50 was inactive: > 100 µM.
For the molecule `CCCCC(C(=O)C(=O)NC1C2CC3CC(C2)CC1C3)C(=O)C(C)C` (stereo not drawn), the GI50 was inactive: > 100 µM.
As to `COC(=O)C(=O)C(C#N)c1ccc(CC#N)cc1` (stereo not drawn), the GI50 is inactive: > 100 µM.
`CC(=O)O[C@H]1C(=O)[C@@]2(C)C(C(OC(=O)c3ccccc3)[C@]3(O)CC(OC(=O)C(O)C(NC(=O)c4ccc(C)cc4)c4ccccc4)C(C)=C1C3(C)C)[C@]1(OC(C)=O)CO[C@@H]1C[C@@H]2O` (stereo partly drawn): the GI50 was active: 0.00973 µM.
In the case of `CN1N=C2c3ccccc3OC(c3ccccc3)[C@H]2C1c1ccccc1` (stereo partly drawn) it was inactive: 87.1 µM; in that of `COC(=O)[C@]1(c2cc3ccccc3[nH]2)CC2CN(C(=O)OCc3ccccc3)C1CC2=O` (stereo partly drawn), inactive: 20.6 µM; in that of `CC(C)C(CCOS(=O)(=O)O)CCC(C)[C@H]1[C@@H](O)C(O)C2[C@]3(O)C[C@@H](O)C4(O)C[C@@H](O)CC[C@]4(C)C3CC[C@@]21C` (stereo partly drawn), inactive: > 100 µM.
With `O=C1NC(O)CCN1C1OC(CO)C(O)C1O` (stereo not drawn), the GI50 was inactive: > 250 µM.
Next, `CCN(CC)CCNC(=O)c1ccc(I)cc1`: inactive: > 100 µM.
In the case of `O=C(CCCn1cnc([N+](=O)[O-])n1)NCCn1ccnc1[N+](=O)[O-]` it was inactive: > 100 µM.
